The values that follow come from PubChem BioAssay AID1508624 (National Center for Advancing Translational Sciences (NCATS), 2021).

Screen size: about 48,000 compounds; about 120 (0.25%) were called active. Another 4% or so got no clear call; they are omitted. Calls come from the whole dose curve; as a rule, active = well fitted activation curve with a large enough effect; inconclusive = small, poorly fitted or top-dose-only effect, or another doubt; inactive = no such curve, though single readings can be large or run the other way. This is a selection; strong and weak results do not stand in their true shares. Where no call is shown, the source filed none.
Potency is the fitted concentration of half-maximal effect.

This assay in a line: Primary qHTS for Identification of Small Molecule Activators of Huntingtin-Antisense Promoter Activity. Note: nearly all actives have a fitted effect of over 55% in size. As to conditions: HEK293 HTT-AS promoter firefly luciferase reporter, 24 h; activity change, positive = activation: at 57.5 µM (top of the series), percent change from vehicle, -100% = no light. In short, it runs like this: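 Luminescence was read after Dual-Glo reagent and a 10 min room-temperature incubation. Values were normalized to vehicle (0% activity) and zero RLU (-100% activity). Reporter HEK293 cells had been exposed to compounds (up to 57.5 uM final) for 24 h.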
As to `CC(=O)N1c2ccc(S(=O)(=O)NCC3CCC(C(=O)Nc4ccc(C)cc4)CC3)cc2CC1C` (configuration not stated), the “activity change, positive = activation” value is inactive: -39.4%.
With `CCOC(=O)c1ccc(N2CCN(c3cccc(OC)c3)CC2)c(NC(=O)Nc2ccc(OCC)cc2)c1`, the activity change, positive = activation was determined as 4.06%.
For the molecule `COc1ccccc1CNS(=O)(=O)c1c(C)nc2scc(C)n2c1=O`, the activity change, positive = activation was -8.97%.
As to `CC[C@]1(O)C[C@@H]2CN(CCc3c([nH]c4ccccc34)[C@@](C(=O)OC)(c3cc4c(cc3OC)N(C=O)[C@@H]3C45CCN4CC=C[C@](CC)([C@H]45)[C@@H](OC(C)=O)[C@]3(O)C(=O)OC)C2)C1` (some centres not stated), the “activity change, positive = activation” value is inactive: -16%.
Take `COC(=O)c1ccc(NC(=O)CCc2c(C)nn(-c3ccc(N4CCCC4)nn3)c2C)cc1`: the activity change, positive = activation was -9.22%.
In the case of `CCn1cc(-c2ccnc3[nH]c(-c4cccc(CN(C)C)c4)cc23)c(-c2ccc(NC(=O)N(C)C)cc2)n1`, the “activity change, positive = activation” value was inactive: -46.1%.
On the same count and under the same terms, as for `COc1ccccc1N1CCN(C(=O)CCc2c(C)nn(-c3ccc(N4CCCC4)nn3)c2C)CC1`, the figure is -19.5%; as for `CCOc1ccn(-c2ccc(F)cc2)c(=O)c1C(=O)Nc1ccc(Oc2ccnc(N)c2Cl)c(F)c1`, inactive: -16.3%.
For the molecule `CCn1c(SCc2ccccc2)nnc1-c1nonc1NC(C)=O`, the “activity change, positive = activation” value was inactive: -19.4%.
The same measure, in the same setting: under `Cc1ccccc1CCNC(=O)c1cc2ccccn2n1` stands 87.3%; under `OCc1ccc(-c2ccc(-c3ccc(CO)s3)o2)s1`, inactive: -9.42%; under `Cc1cccc(C(=O)Nc2cc3c(cc2N2CCCCC2)n(C)c(=O)n3C)c1`, 1.5%.
As to `Cc1ccc(C)c(CNC(=O)C2CCCCN2S(=O)(=O)c2ccc(F)cc2)c1` (configuration not stated), the activity change, positive = activation is -21.8%.
Same read-out and setting: under `O=C(CC(c1cccs1)N1Cc2ccccc2C1=O)Nc1ccc(Cl)cc1` (configuration not stated) stands -14.8%.
As to `CCOc1ccc2nc(Cl)c(C3CC(c4ccc(C)cc4)=NN3C(=O)CCCC(=O)O)cc2c1` (configuration not stated), the activity change, positive = activation was -7.05%.
Regarding `CCOC(=O)c1[nH]c2ccccc2c1NC(=O)c1cc(Cl)ccc1Cl`, the “activity change, positive = activation” value is inactive: -22.3%.
As to `COc1ccc(CNC(=O)c2cc3c(=O)n(Cc4ccco4)ccc3nc2C)c(OC)c1`, the activity change, positive = activation was -17.9%.
`CCOc1ccc(NC(=O)c2cc(-c3ccc(C)c(F)c3)on2)c([N+](=O)[O-])c1`: the activity change, positive = activation was found to be 0.608%.
On to `Cc1ccc(NC(=O)n2ncc3c(C)cccc32)c(C)c1`, for which the Potency is active: 7.08 µM.
`CCCOc1ccc(NC(=O)CC2C(=O)N(c3cccc(OC)c3)C(=O)N2CCc2ccncc2)cc1` (configuration not stated): the activity change, positive = activation was -15.5%.
As for `COc1ccc(N2CCN(C(=O)CCc3c(C)nn(-c4ccc(N5CCCC5)nn4)c3C)CC2)cc1`, the activity change, positive = activation was -21.4%.
With `Cc1c(NC(=O)c2cc(-c3ccc(Cl)c(Cl)c3)on2)c(=O)n(-c2ccccc2)n1C`, the activity change, positive = activation was -3.29%.
As for `Cc1ccc(C)c(N2CCN(C(=O)C3CCN(c4nc(-c5ccc(C(C)C)cc5)no4)CC3)CC2)c1`, the “activity change, positive = activation” value was inactive: -93.2%.
For the molecule `COc1cc(NC(=O)c2noc3c2CCc2ccccc2-3)cc(OC)c1OC`, the activity change, positive = activation was -8.19%.
For the molecule `Cc1ccc(OCCn2c(-c3ccc(Cl)cc3)nc3ccccc3c2=O)c(C)c1`, the activity change, positive = activation is -5.2%.
Still for that read-out and setting: under `CCCCNC(=O)c1cnc2sc(N3CCCCC3)nn2c1=O` stands 4%.
On the same count and under the same terms, under `COc1cccc(OCCCn2c(-c3ccc(Cl)cc3)nc3ccccc3c2=O)c1` stands 11.9%; under `Cc1c(CCC(=O)NCc2ccc(F)cc2)c(=O)oc2cc(O)ccc12`, -3.05%.
With `CCn1c(CN2CCCCC2)nc2cc(NC(=O)COc3ccccc3C(C)(C)C)ccc21`, the “activity change, positive = activation” value was inactive: -25.4%.
Regarding `COc1ccc(N2CCN(C(=O)c3cc(-c4ccc(C)c(F)c4)on3)CC2)cc1`, the activity change, positive = activation was -12.8%.
For the molecule `Cc1ccc(OCCCn2c(-c3ccc(Cl)cc3)nc3ccccc3c2=O)c(C)c1`, the activity change, positive = activation was -1.5%.
Consider `COc1ccc(S(=O)(=O)Nc2cccc(-c3ccc(N4CCC(C)CC4)nn3)c2)c(OC)c1`, for which the activity change, positive = activation was 28.6%.
As to `COC(=O)c1cc2oc3ccccc3c2n1CC(=O)Nc1ccc(C)c(F)c1`, the activity change, positive = activation was 5.93%.
On the same count and under the same terms, under `COc1ccc(-c2cc(C(=O)Nc3cccnc3)no2)cc1OC` stands 15.6%; under `Cc1ccc(Cl)cc1NC(=O)COC(=O)CC(C)(C)CC1=NS(=O)(=O)c2ccccc2N1`, inactive: -34.6%; under `CCCc1cc(C(=O)Nc2c(C)nn(Cc3c(Cl)cccc3Cl)c2C)no1`, -23.8%.
Regarding `Cc1cc(C)c(S(=O)(=O)Nc2ccc(-c3ccc(N4CCCCCC4)nn3)cc2)c(C)c1`, the activity change, positive = activation was found to be 22.1%.
As to `Cc1nn(-c2ccc(N3CCCC3)nn2)c(C)c1CCC(=O)Nc1ccc(F)c(Cl)c1`, the activity change, positive = activation came out at 3.23%.
In the case of `Cn1c(=O)oc2cc(S(=O)(=O)N3CCC(C(=O)Nc4ccc(F)c(Cl)c4)CC3)ccc21`, the “activity change, positive = activation” value is inactive: -16.8%.
Regarding `O=C(Nc1cccnc1)c1cc(-c2cccc(Cl)c2)on1`, the activity change, positive = activation was determined as 4.87%.
On the same count and under the same terms, as for `Cc1cc(O)c2c(C)c(CC(=O)NCc3ccccc3Cl)c(=O)oc2c1`, the figure is -10.5%; as for `COc1ccc(C(=O)CC2(O)C(=O)N(Cc3ccccc3)c3ccc(Br)cc32)cc1` (configuration not stated), -6.18%.
On the same count and under the same terms, as for `CCOC(=O)c1cc(C)n(CC2CCC(C(=O)Nc3ccc(OC)cc3)CC2)c1C` (configuration not stated), the figure is -19.2%; as for `COc1ccccc1NC(=O)c1cc2c(=O)n(Cc3cccs3)ccc2nc1C`, -20.8%.
For `COc1ccc(F)cc1S(=O)(=O)Nc1cccc(-c2ccc(N3CCCCCC3)nn2)c1`, the activity change, positive = activation was found to be 17.6%.
Regarding `Cc1cc(C(=O)N2CCN(c3cccc(Cl)c3)CC2)n(-c2ccccc2)n1`, the “activity change, positive = activation” value is inactive: -28.4%.
Take `Cc1ccc(NC(=O)CSc2nc(-c3ccco3)nc3cc(=O)[nH]n23)cc1C`: the activity change, positive = activation was -12.1%.
